The campaign covered roughly 310,000 compounds. About 14,000 (4.5%) showed an effect of 50% or more. The effect is printed as a negative number. The list shows a part of the results.
Each compound was assayed against human ether-à-go-go-related gene (hERG) potassium channel (human, UniProt Q12809) (assay: primary screen, population patch clamp on CHO cells stably expressing hERG).
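Further: peak tail current of the secondary pulse compared with the same well before compound.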

human ether-à-go-go-related gene (hERG) potassium channel, sequence (Q12809 whole entry, looked up): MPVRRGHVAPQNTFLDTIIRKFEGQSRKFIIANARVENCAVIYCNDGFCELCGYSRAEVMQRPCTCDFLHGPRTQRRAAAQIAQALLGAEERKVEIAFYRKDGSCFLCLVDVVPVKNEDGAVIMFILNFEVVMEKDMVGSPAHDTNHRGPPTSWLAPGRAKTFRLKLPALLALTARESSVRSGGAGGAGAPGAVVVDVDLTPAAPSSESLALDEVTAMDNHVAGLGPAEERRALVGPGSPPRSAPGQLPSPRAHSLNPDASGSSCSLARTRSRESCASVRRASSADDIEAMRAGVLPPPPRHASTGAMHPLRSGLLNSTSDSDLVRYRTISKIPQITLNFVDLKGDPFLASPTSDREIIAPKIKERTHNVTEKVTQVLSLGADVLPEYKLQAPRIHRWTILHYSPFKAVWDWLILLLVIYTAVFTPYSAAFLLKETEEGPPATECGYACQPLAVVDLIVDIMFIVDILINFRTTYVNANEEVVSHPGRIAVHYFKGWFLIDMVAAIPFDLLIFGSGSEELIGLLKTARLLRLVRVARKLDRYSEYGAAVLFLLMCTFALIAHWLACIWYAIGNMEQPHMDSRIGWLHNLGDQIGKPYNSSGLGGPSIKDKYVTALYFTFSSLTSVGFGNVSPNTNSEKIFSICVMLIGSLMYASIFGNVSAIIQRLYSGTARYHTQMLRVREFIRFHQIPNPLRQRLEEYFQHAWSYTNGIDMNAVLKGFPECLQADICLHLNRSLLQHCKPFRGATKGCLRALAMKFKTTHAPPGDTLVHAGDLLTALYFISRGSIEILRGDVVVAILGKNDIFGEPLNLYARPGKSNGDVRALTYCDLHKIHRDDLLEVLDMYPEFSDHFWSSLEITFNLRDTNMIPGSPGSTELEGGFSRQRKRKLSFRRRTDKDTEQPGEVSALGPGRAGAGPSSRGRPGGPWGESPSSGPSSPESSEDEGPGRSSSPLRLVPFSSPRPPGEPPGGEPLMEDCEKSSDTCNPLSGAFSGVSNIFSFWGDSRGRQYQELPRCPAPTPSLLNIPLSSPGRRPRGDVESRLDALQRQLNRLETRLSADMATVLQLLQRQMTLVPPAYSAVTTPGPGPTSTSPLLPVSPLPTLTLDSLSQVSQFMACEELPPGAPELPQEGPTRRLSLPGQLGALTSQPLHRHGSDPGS

Row | SMILES | hERG current change (%, negative = inhibition) at 10uM
1 | CN(C)CC/C=C1/c2ccccc2Sc2c(O)cc(Cl)cc21 | -47.5%
2 | O=C1CC2(CCCCCC2)Oc2ccc(Cl)cc21 | 9.01%
3 | Cc1ccc(SCC(=O)NCc2ccccc2C)cc1 | 11.8%
4 | CCN1C(=O)NC(c2cccnc2)C(C(=O)OC)=C1C (stereo not drawn) | -11.3%
5 | Cc1noc(C)c1CS(=O)(=O)c1ccc([N+](=O)[O-])cc1 | -19.2%
6 | Cc1ccccc1NC(NC(=O)OCCn1c([N+](=O)[O-])cnc1C)C(Cl)(Cl)Cl (stereo not drawn) | 2.42%
7 | C[C@H]1CNC(=O)C(=O)N1C[C@H](Cc1ccc(O)cc1)NC(=O)CC12CC3CC(CC(C3)C1)C2 | 18.8%
8 | CCOC(=O)N/N=C/C(Cl)=C/c1ccccc1 | 0.407%
9 | CCOC(=O)Cn1cnc2sc3c(c2c1=O)CCC3 | 1.75%
10 | COc1ccc(S(=O)(=O)Nc2cc3c4c(c2)CCN4C(=O)CC3)cc1 | 5.85%
11 | O=C(CCOc1ccccc1)Nc1ccnn1C1CCN(Cc2ccc(F)cc2)CC1 | -59.1%
12 | CCCCN1CCCC1CNC(=O)c1cc(C#N)c2ccccc2c1OC (stereo not drawn) | -64.3%
13 | S=C(NCc1ccccc1)N1CCN(c2cccc(Cl)c2)CC1 | 9.86%
14 | CCCCN1C(=O)C2C3C=CC(C2C1=O)C1C2C(=O)N(CCCC)C(=O)C2C31 (stereo not drawn) | -33.2%
15 | CCOC(=O)c1c(C)n(-c2ccccc2)c2ccc(O)c(CN(C)C)c12.Cl | -30.7%
16 | O=C(O)C1CCC(=O)N(C2CC2)C1c1ccccc1 (stereo not drawn) | 12%
17 | COc1ccc(NC(=O)CSc2nnc(-c3cccs3)n2-c2ccccc2)cc1 | -18%
18 | O=C1CC(c2ccccc2)c2c(O)cc(O)cc2O1 (stereo not drawn) | -3.12%
19 | CCn1nc(C)cc1C(=O)Sc1ccc(Cl)cc1Cl | 16.2%
20 | CC(C)NC(=O)NC(=O)CSc1ccccc1F | -1.52%
21 | Cc1ccc(Nc2cc(C(=O)NCCCN3CCOCC3)c3ccccc3n2)c(C)c1 | -12.8%
22 | O=C(CCc1nnc2ccc(NCc3ccc(F)cc3)nn12)NC1CCCC1 | -0.461%
23 | CC[n+]1ccc(C)c2cc(S(=O)C(F)(F)F)ccc21.Cc1ccc(S(=O)(=O)[O-])cc1 (stereo not drawn) | -16%

Row | SMILES | hERG current change (%, negative = inhibition) at 10uM
24 | O=C(OCC(=O)c1ccc[nH]1)c1ccc2ccccc2n1 | 24.2%
25 | COCCn1c(CN2CCN(c3ccc(OC)cc3)CC2)nc2c1c(=O)n(C)c(=O)n2C | -9.23%
26 | Br.Cn1c(=N)n(CC(=O)c2ccc(Cl)c(Cl)c2)c2ccccc21 | -64.1%
27 | O=[N+]([O-])c1ccc(SCCc2cc[nH+]cc2)cc1.[Cl-] | -53.7%
28 | O=C(NCc1ccco1)c1cc(-c2ccc(Cl)cc2)on1 | 37.3%
29 | CNC(=O)COC(=O)c1ccc2c(c1)S(=O)(=O)c1ccccc1C2=O | -3.19%
30 | O=S(=O)(NCc1ccc(F)cc1)c1cccc(S(=O)(=O)N2CCOCC2)c1 | -48.5%
31 | COc1cc(OC)cc(C(=O)N[C@@H](CCSC)c2nc3ccccc3[nH]2)c1 | 30.7%
32 | CCOC(=O)C(=CN(CCc1ccccc1)CC(=O)OC)C(=O)OCC | 0.467%
33 | O=C(c1ccc([N+](=O)[O-])s1)N1CCN(c2ccc(C(F)(F)F)cn2)CC1 | -67.5%
34 | C=CCS(=O)(=O)c1nc2ccccc2s1 | 9.22%
35 | Nc1nnc(CSCc2ccc(Cl)cc2)s1 | -6.05%
36 | c1cc(CCN2CCCC2)ccn1 | -19.6%
37 | Cc1ccc(C(=O)Nc2nc(C)c(C)s2)o1 | -12.3%
38 | Cc1cc(C)cc(OCC(=O)NCC2CCCO2)c1 (stereo not drawn) | -11.8%
39 | CCN(CC)CCOC(=O)C1c2ccccc2Oc2ccccc21.Cl | -20.4%
40 | CCCOc1ccccc1C(=O)N(Cc1cccs1)C1CCS(=O)(=O)C1 (stereo not drawn) | -12.1%
41 | CC1=C/C(=C\c2ccc3c(c2)OCO3)C(=O)S1 | 5.62%
42 | CSc1ccccc1OCc1cc(C(=O)N(C)C(C)c2nc(C)cs2)no1 (stereo not drawn) | -63.6%
43 | C(=N\Nc1nc2ccccc2[nH]1)/c1ccncc1 | -7.82%
44 | COc1cc(OC)cc(-c2nnc(SCC(=O)N(C(C)C)C(C)C)o2)c1 | -13%
45 | O=C(Nc1ccccn1)c1ccc(C(=O)c2ccccc2)cc1 | -16.1%
46 | COc1ccc(/C=N/NC(=O)c2ccc(F)cc2)cc1CN1CCc2cc(OC)c(OC)cc2C1C (stereo not drawn) | -88.3%

Row | SMILES | hERG current change (%, negative = inhibition) at 10uM
47 | COc1ccc2c(c1)c(CC(=O)OC(C)C(=O)N(C)C)c(C)n2C(=O)c1ccc(Cl)cc1 (stereo not drawn) | -25.7%
48 | Nn1c(SCC(=O)Nc2ccc3c(c2)OCO3)nncc1=O | 10.5%
49 | CCOC(=O)Cc1c(C)nc2cc(-c3ccc(C(C)(C)C)cc3)[nH]n2c1=O | -7.42%
50 | CC(C)Oc1cccc(C(=O)O)c1 | 4.98%
51 | Cc1c(C)c2ccc(OCC(=O)N(C)C3CCS(=O)(=O)C3)c(C)c2oc1=O (stereo not drawn) | 9.53%
52 | CCCCN1CCC(C#N)(Nc2ccccc2)CC1 | 9.73%
53 | Cc1cc(NC(=O)CCCn2nc([N+](=O)[O-])c(Br)c2C)no1 | -5.48%
54 | CCOc1ccc(NC(=S)NC(=O)/C=C/c2ccc(OC)cc2)c([N+](=O)[O-])c1 | 7.26%
55 | CCN(C(=O)COC(=O)/C=C/c1c(C)nn(-c2ccccc2)c1C)C1CCS(=O)(=O)C1 (stereo not drawn) | -5.58%
56 | COc1cccc(-c2nc(=S)c3c(n2Cc2ccco2)CCCC3)c1 | 1.65%
57 | NCCCS(=O)(=O)O | 12.6%
58 | Cc1cc(N2CCOCC2)nc2ccc(NC(=O)CCC(=O)N3CCN(c4ccccc4F)CC3)cc12 | -18.6%
59 | CCn1c(O)c(/C=N/NC(=O)c2ccncc2)c(=O)[nH]c1=S | 28.4%
60 | COc1cccc(NC(=O)c2cnc(SCC(=O)NCc3ccc4c(c3)OCO4)n(C)c2=O)c1 | -15.1%
61 | CC1=NNC(=O)/C1=C\c1cn(-c2ccccc2)nc1-c1ccc(Cl)cc1 | 3.69%
62 | CC1=NN(c2ccccc2)C(=O)C1/C=C1\C(=O)NC(=O)N(c2cc(C)cc(C)c2)C1=O (stereo not drawn) | 6.47%
63 | Cc1cc(C)cc(CC2CC(=O)N(c3cc(C)on3)C2=O)c1 (stereo not drawn) | 0.808%
64 | CCOc1nc(Nc2ccc(OC)cc2OC)nc(OCC)n1 | 4.49%
65 | CC(C)OC(=O)CSc1nnc(-c2ccccn2)n1C | 12.8%
66 | COc1cccc(NC(=O)CCNS(=O)(=O)c2ccc3c(c2)oc(=O)n3C)c1 | 3.22%
67 | O=C(CSc1ccc(-c2cccnc2)nn1)N1CCCCC1 | 4.55%
68 | Cn1nc(-c2ccccc2)nc1-c1ccccc1 | -7.95%
69 | Cc1ccc(NS(=O)(=O)c2ccccc2[N+](=O)[O-])cc1C | 11.8%

Row | SMILES | hERG current change (%, negative = inhibition) at 10uM
70 | Oc1c(C=Nc2cccnc2)sc2ccccc12 | 0.807%
71 | O=C(Cn1cc(S(=O)(=O)Cc2ccc([N+](=O)[O-])cc2)c2ccccc21)N1CCOCC1 | -12.5%
72 | COc1ccc(/C=N/Nc2nc(-c3cccnc3)nc3ccccc23)cc1OC | -22.2%
73 | CCOC(=O)N1CCN(C(=O)c2ccc3nc(N4CCCCC4)sc3c2)CC1 | -15.7%
74 | O=C(Cc1cccs1)NNC(=O)c1ccccc1Cl | -3.89%
75 | O=C(NCc1ccc2c(c1)OCO2)C12CC3CC(CC(C3)C1)C2 | -20.7%
76 | CS(=O)(=O)N(CC(=O)Nc1ccc(CC#N)cc1)c1ccc(C23CC4CC(CC(C4)C2)C3)cc1 | -0.0575%
77 | Cc1ccc(N2CC(C(=O)Nc3nnc(SCCN4CCOCC4)s3)CC2=O)cc1C (stereo not drawn) | 20.7%
78 | CN(C)Cc1nc2ccccc2c(=O)n1Cc1nc(-c2cccc([N+](=O)[O-])c2)cs1 | -36.9%
79 | CN(C)CCCNC(=O)N1c2ccccc2Sc2ccccc21 | 1.39%
80 | Nc1nc(F)nc2c1ncn2[C@@H]1O[C@H](CO)[C@@H](O)[C@H]1O | 19%
81 | CCOc1cc(C2C(C(=O)c3ccco3)=C(O)C(=O)N2CCc2ccccc2)ccc1O (stereo not drawn) | 2.76%
82 | CC(/C=N/N1CCN(c2ccc(C)cc2)CC1)=C\c1ccccc1 | 12%
83 | CCOC(=O)NN1C(=O)c2ccccc2NC1c1ccc(N(C)C)cc1 (stereo not drawn) | -5.09%
84 | Cc1ccc(S(=O)(=O)ON2C(=O)c3ccccc3C2=O)c(C)c1 | -7.42%
85 | COc1ccc(Cc2nc3ccccc3n2CC(=O)N/N=C/c2ccc(O)cc2)cc1OC | 0.975%
86 | O=C(CCCc1nc(-c2ccccc2Cl)no1)N1CCOCC1 | 5.68%
87 | COc1ccc(CCC(=O)NCCOc2ccc(Cl)cc2)cc1 | -7.98%
88 | O=C(NCc1ccccc1Cl)c1cnn2cccnc12 | -3.22%
89 | CC1CC(C)CN(CCCNS(=O)(=O)c2ccc3c(c2)oc(=O)n3C)C1 (stereo not drawn) | -3.19%
90 | COC(=O)C1C(=O)C2=C(CC1C)NC(=O)CC2c1cccc(C)c1 (stereo not drawn) | -12.6%
